By IC50 is commonly meant the concentration at which inhibition is half-maximal. A low value points to inhibition by little substance.

Molecules are shown by their SMILES. Bounds are passed on as bounds.

The target in this assay is hepatitis C virus RNA dependant polymerase (NS5B) (Hepatitis C virus genotype 1b, UniProt P26663). Description: Inhibition of NS5B RNA dependent RNA polymerase activity (SPA, oligo-U/polyA).
`C[C@@H](NC(=O)c1ccc2c(c1)nc(-c1ccoc1)n2C1CCCCC1)C(=O)Nc1nc(-c2ccc(OCC(=O)O)cc2)cs1` [compound 1023]: the IC50 lay within 500 to 5000 nM.

`O=C(NC1(C(=O)Nc2ccc(Cl)nc2)CCCC1)c1ccc2c(c1)nc(-c1ccoc1)n2C1CCCCC1` [compound 1037] yielded an IC50 of 500 to 5000 nM.

In the case of `Cn1c(C(=O)O)cc2cc(NC(=O)C3(NC(=O)c4ccc5c(c4)nc(-c4ccoc4)n5C4CCCCC4)CCCNC3)ccc21` (stereo not drawn) [compound 1104], the IC50 was 500 to 5000 nM.

As to `C[C@@H](NC(=O)c1ccc2c(c1)nc(-c1ccoc1)n2C1CCCCC1)C(=O)Nc1ccc(OC(C)(C)C(=O)O)cc1` [compound 1025], the IC50 is 500 to 5000 nM.

As for `O=C(O)/C=C/c1ccc(NC(=O)C(NC(=O)c2ccc3c(c2)nc(-c2ccoc2)n3C2CCCCC2)c2cccs2)cc1` (stereo not drawn) [compound 1019], the half-inhibitory concentration (IC50) was 500 to 5000 nM.

For `CC(NC(=O)c1ccc2c(c1)nc(-c1ccoc1)n2C1CCCCC1)C(=O)Nc1ccc(C(=O)O)cc1` (stereo not drawn) [compound 1053], the IC50 was in the range of 500 to 5000 nM.

Molecule `C#CCn1c(C(=O)O)cc2cc(NC(=O)C3(NC(=O)c4ccc5c(c4)nc(-c4ccoc4)n5C4CCCCC4)CCCC3)ccc21` [compound 1086] came in with a concentration for half-maximal inhibition (IC50) below 500 nM.

`CC(NC(=O)c1ccc2c(c1)nc(-c1ccoc1)n2C1CCCCC1)C(=O)Nc1cccc(-c2cccc(N)c2)c1` (stereo not drawn) [compound 1022] had a concentration for half-maximal inhibition (IC50) of 500 to 5000 nM.

Regarding `CCN1CCC(NC(=O)c2ccc3c(c2)nc(-c2ccoc2)n3C2CCCCC2)(C(=O)Nc2ccc(-c3nc(C(N)=O)cs3)cc2)CC1` [compound 1109], the IC50 is below 500 nM.

As for `O=C(O)/C=C/c1ccc(NC(=O)C2(NC(=O)c3ccc4c(c3)nc(-c3cccs3)n4C3CCCCC3)CCCC2)cc1` [compound 2050], the IC50 is below 500 nM.

`O=C(NC1(C(=O)Nc2ccc(-c3nc(C(=O)O)cs3)cc2)CCCC1)c1ccc2c(c1)nc(-c1ccoc1)n2C1CCCCC1` [compound 1090] returned a half-inhibitory concentration (IC50) below 500 nM.

In turn, `CC1CCCC(C)C1n1c(-c2cccc3c2OCO3)nc2cc(C(=O)NC3(C(=O)Nc4ccc(C=CC(=O)O)cc4)CCCC3)ccc21` (stereo not drawn) [compound 2039] had an IC50 of 500 to 5000 nM.

`O=C(O)/C=C/c1ccc(NC(=O)C2(NC(=O)c3ccc4c(c3)nc(-c3ccco3)n4C3CCCCC3)CCCC2)cc1` [compound 2049]: the IC50 was below 500 nM.

In turn, `CC(NC(=O)c1ccc2c(c1)nc(-c1ccoc1)n2C1CCCCC1)C(=O)Nc1ccc(CC(=O)O)cc1` (stereo not drawn) [compound 1008] yielded a 50% inhibitory concentration (IC50) of 500 to 5000 nM.

`C[C@@H](NC(=O)c1ccc2c(c1)nc(-c1ccoc1)n2C1CCCCC1)C(=O)Nc1ccc(-c2ccoc2)cc1` [compound 1032] came in with an IC50 of 500 to 5000 nM.

Consider `C[C@@H](NC(=O)c1ccc2c(c1)nc(-c1ccoc1)n2C1CCCCC1)C(=O)Nc1ccc(C2=CC(=O)OC2)cc1` [compound 1035], for which the IC50 lay within 500 to 5000 nM.

In turn, `C[C@@H](NC(=O)c1ccc2c(c1)nc(-c1ccoc1)n2C1CCCCC1)C(=O)Nc1ccc2c(c1)cc(C(=O)O)n2C` [compound 1087] had an IC50 below 500 nM.

The molecule `O=C(O)/C=C/c1ccc(NC(=O)C2(NC(=O)c3ccc4c(c3)nc(-c3ccco3)n4C3CCC3)CCCC2)cc1` [compound 2025] registered an IC50 of 500 to 5000 nM.

`O=C(O)/C=C/c1ccc(NC(=O)C2(NC(=O)c3ccc4c(c3)nc(-c3ccccn3)n4C3CCCCC3)CCCC2)cc1` [compound 2005] gave a half-inhibitory concentration (IC50) below 500 nM.

With `CC(NC(=O)c1ccc2c(c1)nc(-c1ccoc1)n2C1CCCCC1)C(=O)NC(C)C(=O)Nc1ccc(CCCC(=O)O)cc1` (stereo not drawn) [compound 1092], the half-inhibitory concentration (IC50) lay in the range of 5000 to 25000 nM.

The molecule `O=C(O)C=Cc1ccc(NC(=O)C2(NC(=O)c3ccc4c(c3)nc(-c3ccc[nH]3)n4C3CC4CCC3C4)CCCC2)cc1` (mixture of isomers) [compound 2022] yielded a concentration for half-maximal inhibition (IC50) of 500 to 5000 nM.

The molecule `CCC[C@@H](NC(=O)c1ccc2c(c1)nc(-c1ccoc1)n2C1CCCCC1)C(=O)Nc1ccc(/C=C/C(=O)O)cc1` [compound 1076] yielded a 50% inhibitory concentration (IC50) of 500 to 5000 nM.

`O=C(O)/C=C/c1ccc(NC(=O)C2(NC(=O)c3ccc4c(c3)nc(-c3cccs3)n4C3CCC3)CCCC2)cc1` [compound 2027] had an IC50 of 500 to 5000 nM.

Molecule `CC1CCCC(C)C1n1c(-c2cccn2C)nc2cc(C(=O)NC3(C(=O)Nc4ccc(C=CC(=O)O)cc4)CCCC3)ccc21` (mixture of isomers) [compound 2032] showed an IC50 of 500 to 5000 nM.

Turning to `Cc1oc(-c2ccc(NC(=O)[C@@H](C)NC(=O)c3ccc4c(c3)nc(-c3ccoc3)n4C3CCCCC3)cc2)cc1C(=O)O` [compound 1027], the IC50 lay within 500 to 5000 nM.

The molecule `O=C(NC1(C(=O)Nc2ccc(C(=O)O)c(Cl)c2)CCCC1)c1ccc2c(c1)nc(-c1ccoc1)n2C1CCCCC1` [compound 1044] yielded a half-inhibitory concentration (IC50) of 500 to 5000 nM.

`O=C(O)/C=C/c1ccc(NC(=O)C2(NC(=O)c3ccc4c(c3)nc(-c3ccoc3)n4C3CCCCC3)CCCCC2)cc1` [compound 1072] returned an IC50 below 500 nM.

Molecule `O=C(O)/C=C/c1ccc(NC(=O)[C@@H](CCc2ccccc2)NC(=O)c2ccc3c(c2)nc(-c2ccoc2)n3C2CCCCC2)cc1` [compound 1015] returned a half-inhibitory concentration (IC50) of 500 to 5000 nM.

`CC(NC(=O)c1ccc2c(c1)nc(-c1ccoc1)n2C1CCCCC1)C(=O)Nc1ccc(/C=C/C(=O)O)cc1` (stereo not drawn) [compound 1054]: the IC50 was below 500 nM.

Take `C[C@@H](NC(=O)c1ccc2c(c1)nc(-c1ccoc1)n2C1CCCCC1)C(=O)Nc1cccc(-c2ccc(C(=O)O)o2)c1` [compound 1065]: the concentration for half-maximal inhibition (IC50) is below 500 nM.

The molecule `O=C(O)C=Cc1ccc(NC(=O)C2(NC(=O)c3ccc4c(c3)nc(-c3ccccn3)n4C3CC4CCC3C4)CCCC2)cc1` (mixture of isomers) [compound 2020] came in with an IC50 below 500 nM.

`CCOC(=O)/C=C/c1ccc(NC(=O)C2(NC(=O)c3ccc4c(c3)nc(-c3ccoc3)n4C3CCCCC3)CCCC2)cc1` [compound 1033] had a 50% inhibitory concentration (IC50) of 5000 to 25000 nM.

For the molecule `C[S+]([O-])c1nc2ccc(NC(=O)C3(NC(=O)c4ccc5c(c4)nc(-c4ccoc4)n5C4CCCCC4)CCCC3)cc2s1` (stereo not drawn) [compound 1039], the IC50 was 500 to 5000 nM.

`O=C(O)/C=C/c1ccc(NC(=O)C2(NC(=O)c3ccc4c(c3)nc(-c3ccoc3)n4C3CCCCC3)CC2)cc1` [compound 1070, (E)-3-(4-{[1-(1-{[1-(1-Cyclohexyl-2-furan-3-yl-1H-benzoimidazol-5-yl)-methanoyl]-amino}-cyclopropyl)-methanoyl]-amino}-phenyl)-acrylic acid]: the IC50 is below 500 nM.

`O=C(O)/C=C/c1ccc(NC(=O)C2(NC(=O)c3ccc4c(c3)nc(-c3ccc[nH]3)n4C3CCC3)CCCC2)cc1` [compound 2030] had a half-inhibitory concentration (IC50) of 500 to 5000 nM.

`O=C(O)C=Cc1ccc(NC(=O)C(NC(=O)c2ccc3c(c2)nc(-c2ccoc2)n3C2CCCCC2)c2ccccc2)cc1` (stereo not drawn) [compound 1016] registered an IC50 of 500 to 5000 nM.

Regarding `O=C(O)/C=C/c1ccc(NC(=O)[C@H](Cc2ccc(-c3ccccc3)cc2)NC(=O)c2ccc3c(c2)nc(-c2ccoc2)n3C2CCCCC2)cc1` [compound 1018], the IC50 lay within 5000 to 25000 nM.

`Cc1cc(=O)oc2cc(NC(=O)[C@@H](C)NC(=O)c3ccc4c(c3)nc(-c3ccoc3)n4C3CCCCC3)ccc12` [compound 1026] displayed a concentration for half-maximal inhibition (IC50) of 500 to 5000 nM.

In turn, `O=C(O)/C=C/c1ccc(NC(=O)C2(NC(=O)c3ccc4c(c3)nc(-c3ccc(OCC(=O)NCCNC(=O)c5ccc(C(=O)c6ccccc6)cc5)cc3)n4C3CCCCC3)CCNCC2)cc1` [compound 2052] displayed an IC50 of 5000 to 25000 nM.
